Measured values as given in a compilation of properties of binary mixtures (doi:10.1080/01932691.2021.1974876).
Some of these densities may be calculated back from excess volumes.

Assay: xn = mol fraction of the nth substance listed
Details: 100 kPa

CO + CC[n+]1ccn(C)c1.N#C[S-]
x2 = 0
Details | mass density [kg/m3]
293.15 K | 791
303.15 K | 782
308.15 K | 777
313.15 K | 772
323.15 K | 762

CC[n+]1ccn(C)c1.N#C[S-] + CO
mass density [kg/m3]
Details | x1 = 0.0988 | x1 = 0.1966 | x1 = 0.3005 | x1 = 0.3859 | x1 = 0.5006 | x1 = 0.5972 | x1 = 0.6996 | x1 = 0.804 | x1 = 0.8997 | x1 = 1
293.15 K | 911 | 978 | 1026 | 1049 | 1073 | 1087 | 1096 | 1105 | 1111 | 1116
298.15 K | 906 | 973 | 1021 | 1044 | 1068 | – | 1093 | 1101 | 1107 | 1113
303.15 K | 900 | 967 | 1016 | – | 1064 | 1078 | 1088 | 1098 | 1104 | –
308.15 K | – | 962 | 1011 | 1035 | – | 1074 | 1085 | 1094 | 1100 | –
313.15 K | 889 | 957 | 1006 | 1031 | 1054 | 1069 | 1081 | 1090 | 1097 | 1103
318.15 K | 884 | 952 | 1002 | 1026 | 1050 | 1065 | 1077 | 1087 | 1093 | 1100
323.15 K | 878 | – | – | 1021 | 1045 | 1060 | 1073 | – | – | –
